This note sets out measurements from the supplement of paper PMC11417369.

± gives the standard deviation of the averaged measurements. The list shows a part of the results.

The test system of this assay is PfAP2-LT AP2 domain (GST-tagged). The experiment in a line: gcPBM binding intensity (ln(normalized median fluorescence intensity)); higher = stronger DNA binding. Summed up: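 An Agilent 4 × 180k array carrying primer-extended double-stranded 36-bp intergenic genomic probes and negative controls received GST-tagged P. falciparum DNA-binding domains expressed in E. coli, about 25 μg on average, for 1 h. The binding buffer contained 1× PBS, 1% milk, 0.2 mg/ml BSA, 0.5% salmon testes DNA and 0.03% Triton X-100. Binding intensity is the top Masliner-normalised natural-log median intensity across replicate spots of either probe orientation, read after Alexa488 anti-GST antibody staining and a 488 nm scan.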
As to “AAAAAAATTAAAGATTGTACTTGATTTTTCATTTTA [XGTACX_site6685]”, the “gcPBM binding intensity (ln)” value was found to be 8.4 ± 0.44.
As for “AGTAGTATGGAGAAAAGTACATAGTATCTGATAACC [XGTACX_site2040]”, the “gcPBM binding intensity (ln)” value is 8.98 ± 0.54.
As for “GACTGAACAACATAATGTACATTTATAAGTATATAT [XGTACX_site3813]”, the figure is 8.95 ± 0.4; as for “TATATATTATATATATGTACTTATTCATATATATAA [XGTACX_site3860]”, 8.64 ± 0.37.
As for CTTTAATATATTTAAGTGCAAAACTAATATGTAAAG, the figure is 8.61 ± 0.48; as for “AAAGAAAAAGAAAAAGAAAAAATAAAATAAAATAAA [CACACA_negctrl_site872]”, 8.43 ± 0.54; as for “TATTTAAAAACAAAAAGTACTAATATATATTTATAC [XGTACX_site1422]”, 8.39 ± 0.46.
The same measure for “ATTACCAACAGATCTTGTACATATTAAAGCATCTTA [XGTACX_site2361]”: 8.62 ± 0.43.
“CAAATACACCAACACACACACACAAAAAAAAAAAAA [CACACA_site514]”: the “gcPBM binding intensity (ln)” value was found to be 9.99 ± 0.38.
For “TAAGTACGACTTGACACACATACACATATATATATA [CACACA_site1286]”, the “gcPBM binding intensity (ln)” value came out at 9.46 ± 0.26.
The same measure for “TGAAAGAATAGAATGAGTACTAATTTAAATTACACT [XGTACX_site1120]”: 8.71 ± 0.52; for “TTCTTTATATATTTTTGTACATATTTATTTTTAGAG [XGTACX_site6757]”: 8.79 ± 0.52; for “TTGATTTCATTTTAAGTGCATAACTAATATTATATA [GTGCAC_site9713]”: 8.48 ± 0.42.
As for “ATATACAAAGAAGCAGTGCATATTTTCTTATTTATG [GTGCAC_site9567]”, the figure is 8.82 ± 0.36.
As for “TCTTTGGTAATATATATGTATAAATATAAATATATA [CACACA_negctrl_site1566]”, the figure is 8.27 ± 0.41.
On to “ATATATATATATGTTAGTACATAACAAGTGTGCATA [XGTACX_site1527]”, for which the “gcPBM binding intensity (ln)” value amounted to 9.32 ± 0.21.
As for “ATAAAACAAGCAAATCGTACAAAAGGATAATATATA [XGTACX_site5592]”, the figure is 9.15 ± 0.54; as for “AAAAAAAAAAAAAACACACACACACCCATACCCATA [CACACA_site5577]”, 10.215 ± 0.0071; as for “ATGTATGGTTTATATGTTCATTTGTTCACCTATTTA [CACACA_negctrl_site1533]”, 9.21 ± 0.51.
The same measure for “TTAGGTAGAAAAAAGACACACACATTATATATATAT [CACACA_site8016]”: 9.45 ± 0.23; for “ATATATATTTAAGAGGGTACAAAAATTTATGAGCAT [XGTACX_site6156]”: 8.77 ± 0.43; for “TATACATATTTATACACACACACATATATTTATATA [CACACA_site6727]”: 9.565 ± 0.078.
Consider “AAAAAATAAAAAATATGTACACATTCAAAATTTTAC [XGTACX_site8479]”, for which the “gcPBM binding intensity (ln)” value was found to be 8.8 ± 0.5.
As for “TGTGCTTATCCTAACACACACAACATATAAGAAAAA [CACACA_site3319]”, the figure is 9.08 ± 0.42; as for “AAAAAGAAAAAAAACACACACAAATATAAATAAATA [CACACA_site1183]”, 9.24 ± 0.49; as for “ATATATATATATATATGTACATATTACATTACTTAT [XGTACX_site749]”, 9.51 ± 0.33.
As for GATAAAATGAGACCAGTGCATTATTAGTTGTACACC, the figure is 9.04 ± 0.43.
As for “TTTTTTGCTAAGTGTACACAAATGTTTATTAATTTA [CACACA_site5859]”, the “gcPBM binding intensity (ln)” value came to 8.62 ± 0.43.
The same measure for “GTAATATTAAAATATACACACATAGAATATATATAT [CACACA_site4391]”: 9.07 ± 0.31; for “ATAATCATAAAATAAACACACATATATAAATATATT [CACACA_site276]”: 8.94 ± 0.38; for “TTTTTTATATTGTGATGTACAAATTTTAAAATGTAG [XGTACX_site1875]”: 8.4 ± 0.4.
As for “GTGTGGAGTTACAAAGAGGAGAACCTCACAGTAATC [CACACA_negctrl_site527]”, the figure is 8.92 ± 0.55; as for “TTACTCTTTATATAATGTACATATATATATATATTA [XGTACX_site2624]”, 8.84 ± 0.43; as for “AAATTCGTTATAAAAACATGCAACGATCAACATTGT [TGCATGCA_site844]”, 8.79 ± 0.4.
As for “TTATGTGATAAAAAAAAAATACAACAAAGTTAAATA [GTGCAC_negctrl_site36]”, the figure is 8.58 ± 0.48; as for “ATATATATATATATAATACACACTTATGAAATGTCT [CACACA_site1827]”, 9.22 ± 0.17; as for “TATAAAGGTTGGTACTGTACAATATAAGAAAAAAAA [XGTACX_site435]”, 8.73 ± 0.55.
In the case of “ATCATTCATTTAACAACACACAACATATTTATCATA [CACACA_site1041]”, the “gcPBM binding intensity (ln)” value came to 8.94 ± 0.42.
Regarding “AAATAGTTCATAAAAAGTACAAAATTTTTATCCGTA [XGTACX_site2796]”, the “gcPBM binding intensity (ln)” value turned out to be 8.64 ± 0.52.
“TATATATTATATAAGAGTACATATAATTATAGTTTT [XGTACX_site5039]”: the “gcPBM binding intensity (ln)” value is 8.49 ± 0.34.
With “TTTATTTTGACAGATTGTACACTTTATACATGTTTT [XGTACX_site2356]”, the “gcPBM binding intensity (ln)” value is 9.1 ± 0.56.
In the case of “AATCTATATTAATACACACACACATATATTTATATA [CACACA_site7732]”, the “gcPBM binding intensity (ln)” value came out at 9.54 ± 0.28.
The same measure for “TGAAAAAAGAAAAATACACACATATAACATAATATA [CACACA_site7126]”: 9.1 ± 0.3.
As for “GTATATATTTCCAGAAGTACTTATTTTTATGTATGT [XGTACX_site4079]”, the “gcPBM binding intensity (ln)” value is 8.92 ± 0.4.
